Common to all, as to test: Viability of human cancer cell lines after 72 h of drug (GDSC screen)
Compound in one assay: CC(C)c1ccccc1Cc1cc(C(=O)Nc2ccc(S(=O)(=O)c3ccccc3C(C)(C)C)cc2)c(O)c(O)c1O [TW-37]
The settings on record: top dose 5 µM. As to the method: (§1)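 Human cancer cell lines in 384-well plates, medium with 10% serum, drug for 72 h over a 256-fold dose range (nine 2-fold or five 4-fold steps up to the top dose). Adherent lines were fixed and stained with the nucleic acid dye Syto60, suspension lines read with resazurin; signal relative to control wells, capped at 0 and 100%. One two-parameter sigmoid per drug and line, fitted in a mixed model over all curves with the slope shared within a line.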

Compound in another assay: Cc1cn(-c2cc(NC(=O)c3ccc(C)c(Nc4nccc(-c5cccnc5)n4)c3)cc(C(F)(F)F)c2)cn1 [Nilotinib]
The conditions noted are these: top dose 2 µM. As to the method:
as §1

Compound in a further assay: CC(O)(CS(=O)(=O)c1ccc(F)cc1)C(=O)Nc1ccc(C#N)c(C(F)(F)F)c1 [Bicalutamide]
The conditions noted are these: top dose inferred. As to the method:
as §1

Compound in another assay: Nc1ccn([C@@H]2O[C@H](CO)[C@@H](O)C2(F)F)c(=O)n1 [Gemcitabine]
The settings on record: top dose 1.024 µM. The procedure: as §1

Compound in the next assay: Cc1ccc(Nc2cc(-c3cccc(N4C(=O)c5ccccc5C4=O)c3)ncn2)cc1NS(C)(=O)=O [KIN001-270]
The conditions noted are these: top dose 20 µM; top dose inferred. The procedure: as §1

Compound in a further assay: CCNC(=O)c1noc(-c2cc(C(C)C)c(O)cc2O)c1-c1ccc(CN2CCOCC2)cc1 [AUY922]
The settings on record: top dose 0.256 µM; top dose inferred. As to the method:
as §1

Compound in another assay: S=C(NCc1ccc2c(c1)OCO2)N1CCN(c2ncnc3c2oc2ccccc23)CC1 [MP470]
The conditions noted are these: top dose 20 µM; top dose inferred. The procedure:
as §1

Compound in the next assay: O=S(=O)(c1ccccc1)N(CC(F)(F)F)c1ccc(C(O)(C(F)(F)F)C(F)(F)F)cc1 [T0901317]
The settings on record: top dose 10.24 µM; top dose inferred. The procedure: as §1

Compound in the next assay: C/C(O)=C(\C#N)C(=O)Nc1cc(Br)ccc1Br [LFM-A13]
The settings on record: top dose 16 µM; top dose inferred. As to the method: as §1

The mark [1] stands for this setting: top dose 10 µM, screen: GDSC drug entry 1502.
Where [2] appears, read: top dose 1.024 µM, screen: GDSC drug entry 150.

AUC and IC50 data for 14 cell lines are collected here from the supplement of paper PMC4967469.

IC50 is the fitted dose that halves viability relative to control wells, and lower means more sensitive; a limit (>, <) means that the fit lies beyond the doses tested. For AUC the same curve is integrated over the 256-fold range of doses and scaled to a fraction; the more sensitive the line, the further below 1. For part of these data: Where the top dose is marked as inferred, it was derived from the fitted curves, not read from the paper. For part of these data: An entry number marks a drug with two screens in the source, which often give different values. A value given as a limit tells only on which side of the number the result lay.

The term IC50 denotes the point on the concentration scale where inhibition reaches its midpoint.

For the cell line MM1S (myeloma, suspension), in the assay with TW-37, the AUC stood at 0.609 and the IC50 amounted to 614 nM. Also, in the assay with Nilotinib, the AUC was found to be 0.959 and the IC50 was over 2000 nM.
On to “VMRC-LCD (lung adenocarcinoma, adherent)”, for which the AUC in the assay with TW-37 stood at 0.398; with Bicalutamide (setting [1]) it was 0.992; with Nilotinib, 0.993. The IC50 with TW-37 is 173 nM; with Bicalutamide (setting [1]) it was over 10000 nM; with Nilotinib, over 2000 nM.
Consider Jurkat (T-cell leukaemia, suspension), for which the results for the AUC with TW-37, in the assay with Bicalutamide (setting [1]) and with Nilotinib were 0.632, 0.985 and 0.992, respectively. Moreover, the figures for the IC50 with TW-37, with Bicalutamide (setting [1]) and with Nilotinib were 672 nM, over 10000 nM and over 2000 nM, respectively.
On to SUP-B8 (B-cell leukaemia, suspension), for which the values for the AUC with TW-37, with Bicalutamide (setting [1]) and in the assay with Nilotinib were 0.8, 0.982 and 0.989, respectively. The values for the IC50 in the assay with TW-37, with Bicalutamide (setting [1]) and with Nilotinib were 2390 nM, over 10000 nM and over 2000 nM, respectively.
EW-22 (Ewing sarcoma, adherent): the AUC with TW-37 was found to be 0.502; with Bicalutamide (setting [1]), 0.978; in the assay with Nilotinib it was 0.987. The IC50 with TW-37 was 316 nM; with Bicalutamide (setting [1]), over 10000 nM; in the assay with Nilotinib, over 2000 nM.
Regarding “KNS-62 (lung squamous cell carcinoma, adherent)”, the AUC in the assay with TW-37 was 0.601; with Bicalutamide (setting [1]), 0.943; with Nilotinib it was 0.961. The IC50 in the assay with TW-37 was 670 nM; with Bicalutamide (setting [1]) it was over 10000 nM; with Nilotinib, over 2000 nM.
As to “MHH-CALL-2 (B-cell leukaemia, suspension)”, the AUC in the assay with TW-37 turned out to be 0.619; with Bicalutamide (setting [1]) it was 0.99; with Nilotinib it was 0.997. Further, the 50% inhibitory concentration (IC50) was 609 nM in the assay with TW-37, over 10000 nM with Bicalutamide (setting [1]) and over 2000 nM in the assay with Nilotinib.
OCI-LY7 (B-cell lymphoma, suspension): in the assay with TW-37, the AUC was found to be 0.34 and the IC50 is 128 nM. Also, in the assay with Nilotinib, the AUC was found to be 0.886 and the IC50 was 1150 nM.
As for IGROV-1 (ovary, adherent), the AUC with TW-37 stood at 0.595; with Bicalutamide (setting [1]), 0.947; with Nilotinib it was 0.976. Besides, the values for the IC50 with TW-37, in the assay with Bicalutamide (setting [1]) and in the assay with Nilotinib were 641 nM, over 10000 nM and over 2000 nM, respectively.
With SK-GT-2 (stomach, adherent), the results for the AUC with TW-37, with Bicalutamide (setting [1]) and with Nilotinib were 0.598, 0.968 and 0.974, respectively. For the same cell line, the IC50 was 589 nM with TW-37, over 10000 nM with Bicalutamide (setting [1]) and over 2000 nM with Nilotinib.
As for SN12C (kidney, adherent), the AUC with Gemcitabine turned out to be 0.787; in the assay with KIN001-270, 0.961; with TW-37, 0.656; with AUY922, 0.675; with Bicalutamide (setting [2]) it was 0.984; with Bicalutamide (setting [1]), 0.978. Moreover, the AUC amounted to 0.861 with MP470, 0.967 with T0901317 and 0.959 with LFM-A13. Moreover, the IC50 with Gemcitabine was 505 nM; with KIN001-270, over 20000 nM; with TW-37 it was 897 nM; in the assay with AUY922, 52.5 nM; in the assay with Bicalutamide (setting [2]), over 1020 nM; with Bicalutamide (setting [1]), over 10000 nM. Besides, the IC50 in the assay with MP470 is over 20000 nM; with T0901317, over 10200 nM; in the assay with LFM-A13, over 16000 nM.
ESO51 (oesophagus, semi-adherent): the AUC with KIN001-270 was found to be 0.957; with Bicalutamide (setting [1]) it was 0.964; with MP470, 0.894; with T0901317 it was 0.952; with Nilotinib, 0.843. Also, the IC50 with KIN001-270 was over 20000 nM; in the assay with Bicalutamide (setting [1]) it was over 10000 nM; in the assay with MP470, over 20000 nM; in the assay with T0901317 it was over 10200 nM; with Nilotinib, over 2000 nM.
As for RCH-ACV (B-cell leukaemia, suspension), the AUC with TW-37 was determined as 0.574; with Bicalutamide (setting [1]), 0.976; with Nilotinib, 0.941. The IC50 is 478 nM in the assay with TW-37, over 10000 nM with Bicalutamide (setting [1]) and over 2000 nM with Nilotinib.
In the case of SK-CO-1 (large intestine, adherent), the AUC with Gemcitabine was determined as 0.428; with KIN001-270, 0.986; in the assay with TW-37 it was 0.563; with AUY922 it was 0.764; in the assay with Bicalutamide (setting [2]) it was 0.978; in the assay with Bicalutamide (setting [1]), 0.977. Besides, the AUC with MP470 stood at 0.944; in the assay with T0901317, 0.988; with LFM-A13, 0.964. Moreover, the IC50 with Gemcitabine is 41.2 nM; with KIN001-270 it was over 20000 nM; in the assay with TW-37, 461 nM; in the assay with AUY922, 87.9 nM; with Bicalutamide (setting [2]) it was over 1020 nM; with Bicalutamide (setting [1]) it was over 10000 nM. Moreover, the IC50 in the assay with MP470 was over 20000 nM; with T0901317, over 10200 nM; in the assay with LFM-A13, over 16000 nM.
